Assay results published in PubChem BioAssay AID602179 (National Center for Advancing Translational Sciences (NCATS), 2012).
The campaign covered roughly 390,000 compounds. About 360 (0.092%) were called active. This list was built around the results that the source calls inconclusive (neither active nor inactive); the mix of calls is not that of the screen. Calls follow the shape of the dose curve; as a rule, active = well fitted inhibition curve with a large enough effect; inconclusive = small, poorly fitted or top-dose-only effect; inactive = no such curve, though single readings can be large or run the other way. Where the call is inconclusive, the potency comes from a doubtful curve fit.

Biological target: Isocitrate dehydrogenase [NADP] cytoplasmic (Homo sapiens) (UniProt O75874)
Experiment: qHTS for Inhibitors of mutant isocitrate dehydrogenase 1 (IDH1): qHTS; also: nearly all actives have a fitted effect of over 65% in size
Conditions: IDH1-R132H enzyme, NADPH consumption, diaphorase/resazurin fluorescence; series mostly up to 76.6 µM
Outline: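 IDH1-R132H (0.5 ug/mL) preincubated 30 min with compound, then NADPH (0.016 mM) and alpha-KG (2 mM) added; 80 min at RT, pH 7.5. Remaining NADPH coupled via diaphorase/resazurin to fluorescence (540/590 nm); concentration-response curves normalized to no-enzyme control.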
Potency is read from the fitted curve at half-maximal effect; tags tell the direction and shape of the fitted curve.

SMILES	Potency
COc1cc([C@@H]2[C@H]3CNCC=C3C(C#N)=C(N)C2(C#N)C#N)ccc1OC(C)C	inconclusive: 46.5 µM [inhibitor, partial curve, poor fit]
CCCCC1CC(=O)NC1(C(=O)OCC)C(=O)OCC (stereo not drawn)	inactive
CCOc1ccccc1-c1nc(-c2ccncc2)no1	inactive
Cc1ccc(-c2onc(C)c2C)cc1S(=O)(=O)N1CCN(c2ccccc2F)CC1	inactive
CC(C)C(Sc1nc(-c2ccccc2)cc(-c2ccccc2)c1C#N)C(=O)O (stereo not drawn)	inconclusive: 58.5 µM [inhibitor, single point]
COc1ccc(CNC(=O)CC2C[C@H](C(=O)N3CCOCC3)[C@@]3(CCC4CCCC4)c4[nH]c5ccccc5c4CCN3C2=O)cc1OC (stereo partly drawn)	inconclusive: 70.8 µM [inhibitor, single point]
O=C(O)CSc1cc(C(=O)c2cc(F)ccc2O)cn2c(=O)c3c(-c4ccccc4)csc3nc12	inconclusive: 58.5 µM [inhibitor, single point]
O=C(Nc1nc2n(n1)C(c1ccc(F)cc1)C=C(c1ccc(Cl)cc1)N2)c1ccc([N+](=O)[O-])cc1 (stereo not drawn)	inconclusive: 63.1 µM [inhibitor, single point]
N#CCCCN1C(=O)C(=C(C#N)C#N)c2ccccc21	inconclusive: 52.1 µM [inhibitor, single point]
CCOc1cc(/C=C2\SC(=Nc3ccccc3)N(c3ccccc3)C2=O)ccc1OCC(=O)O	inconclusive: 52.1 µM [inhibitor, single point]
CCOC(=O)c1cc2c(=O)n3ccccc3nc2n(CC2CCCO2)c1=NC(=O)c1ccccc1C (stereo not drawn)	inconclusive: 50.1 µM [inhibitor, single point]
CC(=O)Nc1ccc(S(=O)(=O)NNc2cccc(C)c2)cc1	inactive
C=CCn1c(SCC(=O)N2CCc3ccccc3C2)nc2sc(CC)cc2c1=O	inconclusive: 50.1 µM [inhibitor, single point]
CCOC(=O)N1CCN(c2c(-c3ccccc3)c3cc(Cl)ccc3[nH]c2=O)CC1	inconclusive: 58.5 µM [inhibitor, single point]
CCc1nc(N2CCN(C(=O)CCl)CC2)c2c3c(sc2n1)CC(C)CC3 (stereo not drawn)	inconclusive: 5.85 µM [inhibitor, full curve]
CCc1ccc(C2c3c(-c4cc(C)ccc4O)n[nH]c3C(=O)N2Cc2cccnc2)cc1 (stereo not drawn)	active: 28.2 µM
CCCCn1c(N)c(Sc2ccccc2[N+](=O)[O-])c(=O)[nH]c1=O	inactive
O=C(/C=C/c1ccccc1)CC(=O)c1ccccc1	inactive
Cc1cc(C2C(C#N)=C(N)OC3=C2C(=O)CC(C)(C)C3)c(C)s1 (stereo not drawn)	inconclusive: 58.5 µM [inhibitor, single point]
Cc1ncc(CO)c(/C=N/NC(=S)Nc2cccc(Cl)c2)c1O	inconclusive: 58.5 µM [inhibitor, single point]
Cc1cccc(OCCSc2nc(-c3cccs3)nc3cc(=O)[nH]n23)c1	inconclusive: 44.7 µM [inhibitor, single point]
CCOC(=O)N1CCN(C(=O)c2ccc(N(C)S(=O)(=O)c3ccc(C)cc3)cc2)CC1	inactive

SMILES	Potency
CC(C)(C)c1ccc(-c2csc(NNC3=NCCCCC3)n2)cc1	inconclusive: 52.1 µM [inhibitor, partial curve]
N/C(=N\OC(=O)Cc1ccc(Cl)cc1)c1ccccn1	inactive
CCOC(=O)c1c(-c2ccccc2Cl)csc1NC(=O)CSc1nc(C)cc(=O)[nH]1	inconclusive: 52.1 µM [inhibitor, single point]
CC1=C(c2ccc(F)cc2)S(=O)(=O)NC1=NCc1ccccc1F	inconclusive: 50.1 µM [inhibitor, single point]
CCCc1[nH]nc2c1C(c1ccc(OC)c(Cn3nc(C)c(Br)c3C)c1)C(C#N)=C(N)O2 (stereo not drawn)	inconclusive: 46.5 µM [inhibitor, partial curve]
Cc1cc(C(=O)CCl)c(C)n1CC1COc2ccccc2O1 (stereo not drawn)	inconclusive: 44.7 µM [inhibitor, partial curve, poor fit]
Cc1ccc(/C=C/C(=O)Nc2ccc(S(N)(=O)=O)cc2)o1	inactive
CC(=O)c1ccc(N=C2C(=O)Nc3ccccc32)cc1	active: 26.1 µM
CC(C)(C)OC(=O)N1CCC(c2cc(=O)n3[nH]cc(C(=O)Nc4ccc(F)c(Cl)c4)c3n2)CC1	inconclusive: 18.5 µM [inhibitor, full curve]
NNc1nc2cc3c(cc2s1)OCCO3	inactive
CC(C)(C)C1CCc2sc(C(=O)NNC(=O)CCl)cc2C1 (stereo not drawn)	inconclusive: 36.9 µM [inhibitor, partial curve]
Cc1cccc(N(C(=O)c2snc(C(N)=O)c2N)C(C(=O)NC2CCCC2)c2ccco2)c1 (stereo not drawn)	inconclusive: 46.5 µM [inhibitor, partial curve]
CCN(CC)S(=O)(=O)c1cc(NC(=O)CNc2cccc(S(=O)(=O)N3CCOCC3)c2)ccc1C	inconclusive: 39.8 µM [inhibitor, partial curve]
N#CC1=C(N)C(C#N)(C#N)C(c2cccnc2)C2CN(C(=O)OCc3ccccc3)CC=C12 (stereo not drawn)	active: 52.1 µM
O=C1c2cccc3cccc(c23)C(=O)N1CCCCCc1n[nH]c(=S)o1	inconclusive: 39.8 µM [inhibitor, partial curve]
Cc1[nH]n(-c2cccc3ccccc23)c(=O)c1/C=N/NC(=O)c1cccc([N+](=O)[O-])c1	inconclusive: 52.1 µM [inhibitor, single point]
Cc1ccc2nc(NC(=O)C3CCCN(S(=O)(=O)c4cnc[nH]4)C3)sc2c1 (stereo not drawn)	inactive
Cc1ccccc1CSc1nc2c(sc3ccccc32)c(=O)n1CCCC(=O)NCCCOC(C)C	inactive
N#CC1(Nc2cccc(Br)c2)C(=O)Nc2ccccc21 (stereo not drawn)	inconclusive: 44.7 µM [inhibitor, partial curve]
CCc1ccc(S(=O)(=O)NCc2cccs2)cc1	inactive
Cc1ccc(-n2c(SCC(=O)Nc3cccc(S(N)(=O)=O)c3)nc3ccccc32)cc1	inconclusive: 58.5 µM [inhibitor, partial curve, poor fit]
